Paper PMC11172389
These are yes or no findings as the source states them, for the method shown. In cells and extracts the contact can be indirect. Some results given as binding are weak or reduced against the parent protein; the word gives no strength.

Sequences of proteins named here, by UniProt entry; tags and fusion partners are left off.
UniProt P58391: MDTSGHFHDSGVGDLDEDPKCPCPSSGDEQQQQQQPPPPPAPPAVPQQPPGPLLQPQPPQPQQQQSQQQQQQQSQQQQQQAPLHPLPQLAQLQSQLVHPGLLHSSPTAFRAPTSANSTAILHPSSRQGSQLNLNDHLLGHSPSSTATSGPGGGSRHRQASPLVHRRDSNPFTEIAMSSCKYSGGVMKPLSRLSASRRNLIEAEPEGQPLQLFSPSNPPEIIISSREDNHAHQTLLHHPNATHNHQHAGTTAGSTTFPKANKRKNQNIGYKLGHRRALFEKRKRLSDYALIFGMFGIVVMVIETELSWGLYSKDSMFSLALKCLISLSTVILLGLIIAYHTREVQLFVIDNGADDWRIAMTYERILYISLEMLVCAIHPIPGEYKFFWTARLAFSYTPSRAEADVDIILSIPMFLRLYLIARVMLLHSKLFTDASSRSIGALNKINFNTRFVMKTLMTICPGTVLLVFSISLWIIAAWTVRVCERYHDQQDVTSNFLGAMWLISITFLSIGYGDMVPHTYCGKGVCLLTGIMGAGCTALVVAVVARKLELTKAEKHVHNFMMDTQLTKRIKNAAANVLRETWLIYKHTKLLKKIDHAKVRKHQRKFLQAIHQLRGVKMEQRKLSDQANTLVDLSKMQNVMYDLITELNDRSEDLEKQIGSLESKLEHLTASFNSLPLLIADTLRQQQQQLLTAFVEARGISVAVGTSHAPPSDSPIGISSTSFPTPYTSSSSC
UniProt Q99246: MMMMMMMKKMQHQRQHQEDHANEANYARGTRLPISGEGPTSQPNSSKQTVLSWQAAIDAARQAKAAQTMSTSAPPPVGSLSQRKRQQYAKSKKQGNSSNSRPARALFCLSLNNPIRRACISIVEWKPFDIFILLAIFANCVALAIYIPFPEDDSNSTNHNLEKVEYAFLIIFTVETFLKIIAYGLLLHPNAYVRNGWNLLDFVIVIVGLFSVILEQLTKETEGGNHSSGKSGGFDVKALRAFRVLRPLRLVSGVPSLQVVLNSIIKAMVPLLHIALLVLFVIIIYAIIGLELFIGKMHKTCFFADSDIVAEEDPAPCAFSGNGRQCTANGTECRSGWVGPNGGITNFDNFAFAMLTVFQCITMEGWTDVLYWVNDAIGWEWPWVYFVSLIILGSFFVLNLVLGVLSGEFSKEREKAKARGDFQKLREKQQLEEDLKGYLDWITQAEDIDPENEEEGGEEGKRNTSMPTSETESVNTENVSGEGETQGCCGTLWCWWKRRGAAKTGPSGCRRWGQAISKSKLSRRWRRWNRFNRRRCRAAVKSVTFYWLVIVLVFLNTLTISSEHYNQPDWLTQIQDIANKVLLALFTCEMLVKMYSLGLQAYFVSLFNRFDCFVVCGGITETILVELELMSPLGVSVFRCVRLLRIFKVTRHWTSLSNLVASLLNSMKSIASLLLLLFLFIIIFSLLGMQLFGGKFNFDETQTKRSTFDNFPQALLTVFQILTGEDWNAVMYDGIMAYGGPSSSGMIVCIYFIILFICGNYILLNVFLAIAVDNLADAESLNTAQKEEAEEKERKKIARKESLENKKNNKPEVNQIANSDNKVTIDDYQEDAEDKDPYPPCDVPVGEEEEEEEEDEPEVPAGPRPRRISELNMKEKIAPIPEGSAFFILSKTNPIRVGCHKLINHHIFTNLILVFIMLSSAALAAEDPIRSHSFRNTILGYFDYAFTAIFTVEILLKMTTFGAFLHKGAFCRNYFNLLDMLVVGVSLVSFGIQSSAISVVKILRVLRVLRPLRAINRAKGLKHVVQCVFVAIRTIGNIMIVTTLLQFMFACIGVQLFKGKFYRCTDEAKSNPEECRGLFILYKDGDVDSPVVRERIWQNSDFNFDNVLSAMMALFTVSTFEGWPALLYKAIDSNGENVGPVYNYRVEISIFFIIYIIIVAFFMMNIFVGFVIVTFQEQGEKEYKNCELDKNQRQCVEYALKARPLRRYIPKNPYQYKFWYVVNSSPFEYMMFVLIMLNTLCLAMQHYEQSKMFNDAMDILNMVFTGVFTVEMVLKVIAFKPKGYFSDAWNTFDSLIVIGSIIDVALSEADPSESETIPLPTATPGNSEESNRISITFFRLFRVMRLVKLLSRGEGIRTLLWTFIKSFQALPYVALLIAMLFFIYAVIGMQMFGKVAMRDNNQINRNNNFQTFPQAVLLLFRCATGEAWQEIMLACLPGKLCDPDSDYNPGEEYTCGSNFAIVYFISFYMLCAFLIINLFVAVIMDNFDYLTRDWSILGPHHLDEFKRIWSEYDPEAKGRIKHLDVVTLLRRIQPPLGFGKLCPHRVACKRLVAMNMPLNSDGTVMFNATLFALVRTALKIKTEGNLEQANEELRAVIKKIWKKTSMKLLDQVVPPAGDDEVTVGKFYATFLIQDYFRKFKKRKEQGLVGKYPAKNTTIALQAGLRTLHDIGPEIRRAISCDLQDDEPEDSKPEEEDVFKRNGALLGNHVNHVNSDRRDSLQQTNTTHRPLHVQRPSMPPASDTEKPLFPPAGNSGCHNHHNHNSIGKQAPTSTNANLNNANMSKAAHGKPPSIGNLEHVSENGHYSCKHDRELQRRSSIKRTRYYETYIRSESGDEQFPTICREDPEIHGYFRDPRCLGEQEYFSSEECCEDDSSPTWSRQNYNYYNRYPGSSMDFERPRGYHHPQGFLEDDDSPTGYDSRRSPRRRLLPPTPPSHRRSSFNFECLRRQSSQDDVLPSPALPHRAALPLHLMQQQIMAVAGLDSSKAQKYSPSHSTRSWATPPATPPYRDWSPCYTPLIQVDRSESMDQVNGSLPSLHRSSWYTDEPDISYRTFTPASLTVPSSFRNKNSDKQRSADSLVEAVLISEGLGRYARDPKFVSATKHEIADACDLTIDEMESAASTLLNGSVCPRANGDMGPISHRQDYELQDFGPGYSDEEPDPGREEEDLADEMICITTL

Key:
[1] = target: SK3 calcium-activated small-conductance potassium channel (mouse (endogenous in midbrain)) (UniProt P58391); test: co-IP; mouse midbrain plasma-membrane-enriched fraction solubilised in ComplexioLyte CL47a (IP1) or CL48 (IP2), also in the other ComplexioLyte buffers of varying stringencies; antibody overnight at 4 °C, captured on protein A-Sepharose or protein A/G; immunoblot
[2] = target: SK3 calcium-activated small-conductance potassium channel (mouse (endogenous in midbrain)) (UniProt P58391); test: proximity ligation; in situ Duolink PLA with two primary antibodies on fixed 40 µm mouse midbrain slices; puncta counted on tyrosine-hydroxylase-labelled SNc DA neurons; controls: KO mice or an antibody to another protein

Molecule	binding [1]	binding [2]
Cav1.3 L-type voltage-dependent Ca2+ channel α1-subunit (from UniProt Q99246 1-2179)	binds	
sclerosis tuberous complex protein Tsc1 (protein, UniProt Q9EP53 1-1161) MAQLANIGELLSMLDSSTLGVRDDVTAIFKESLNSERGPMLVNTLVDYYLETNSQPVLHILTTLQEPHDKHLLDKINEYVGKAATRLSILSLLGHVVRLQPSWKHKLSQAPLLPSLLKCLKMDTDVVVLTTGVLVLITMLPMIPQSGKQHLLDFFDIFGRLSSWCLKKPGHVTEVYLVHLHASVYALFHRLYGMYPCNFVSFLRSHYSMKENVETFEEVVKPMMEHVRIHPELVTGSKDHELDPRRWKTLETHDVVIECAKISLDPTEASYEDGYSVSHQLSACFPYRSADVTTSPYVDTQNSYGGSTSTPSSSSRLMLFSPPGQLPQSLSSPSTRLLPEPLQASLWSPSAVCGMTTPPTSPGNVPADLSHPYSKAFGTTAGGKGTPSGTPATSPPPAPPCPQDDCVHGSAAQASATAPRKEERADSSRPYLHRQSNDRGLEDPPGSKGSVTLRNLPDFLGDLASEEDSIEKDKEEAAISKELSEITTAEADPVVPRGGFDSPFYRDSLSGSQRKTHSAASGTQGSSVNPEPLHSSLDKHGPDTPKQAFTPIDPPSGSADVSPAGDRDRQTSLETSILTPSPCKIPPQRGVSFGSGQLPPYDHLFEVALPKTACHFVSKKTEELLKKVKGNPEEDCVPSTSPMEVLDRLIEQGAGAHSKELSRLSLPSKSVDWTHFGGSPPSDELRTLRDQLLLLHNQLLYERFKRQQHALRNRRLLRKVIRAAALEEHNAAMKDQLKLQEKDIQMWKVSLQKEQARYSQLQEQRDTMVTQLHSQIRQLQHDREEFYNQSQELQTKLEDCRNMIAELRVELKKANNKVCHTELLLSQVSQKLSNSESVQQQMEFLNRQLLVLGEVNELYLEQLQSKHPDTTKEVEMMKTAYRKELEKNRSHLLQQNQRLDASQRRVLELESLLAKKDHLLLEQKKYLEDVKSQASGQLLAAESRYEAQRKITRVLELEILDLYGRLEKDGRLRKLEEDRAEAAEAAEERLDCCSDGCTDSLVGHNEEASGHNGETRTSRPGGTRASCGGRVTGGSSSSSSELSTPEKPPSQRFSSRWEPALGEPSSSIPTTVGSLPSSKSFLGMKARELFRNKSESQCDEDSVTMSSSSLSETLKTELGKDSGTENKTSLSLDAPHPSSPNSDNVGQLHIMDYNETHPEHS		binds
